Some of the results follow. Further columns of the screen follow, without active or inactive calls.
Legend:
Assay in all cases: Primary Screen for Target Class Profiling of Small Molecule Inhibitors of Methyltransferases
[1] = biological target: Glycine N-methyltransferase (Homo sapiens) (UniProt Q14749); settings: purified enzyme, MTase-Glo SAH luminescence; measured here: GNMT inhibition; at 40 µM; stronger effect = lower value
Procedure, shortened: (§1)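 Each enzyme was reacted with SAM and its substrate, with compounds tested once at 40 uM; SAH formed was read by MTase-Glo luminescence.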

[2] = biological target: Guanidinoacetate N-methyltransferase (Homo sapiens) (UniProt Q14353); settings: purified enzyme, MTase-Glo SAH luminescence; measured here: GAMT inhibition; at 40 µM; stronger effect = lower value
Procedure, shortened: as §1

[3] = biological target: Histamine N-methyltransferase (Homo sapiens) (UniProt P50135); settings: purified enzyme, MTase-Glo SAH luminescence; measured here: HNMT inhibition; at 40 µM; stronger effect = lower value
Procedure, shortened: as §1

[4] = biological target: Nicotinamide N-methyltransferase (Homo sapiens) (UniProt P40261); settings: purified enzyme, MTase-Glo SAH luminescence; measured here: NNMT inhibition; at 40 µM; stronger effect = lower value
Procedure, shortened: as §1

[5] = biological target: Phenylethanolamine N-methyltransferase (Homo sapiens) (UniProt P11086); settings: purified enzyme, MTase-Glo SAH luminescence; measured here: PNMT inhibition; at 40 µM; stronger effect = lower value
Procedure, shortened: as §1
% is scaled to controls: 0 for no effect and ±100 for the full control effect.

COc1cccc(CNc2nc3c(-c4cccc(F)c4)nnn3c3ccccc23)c1
activity change, negative = inhibition [1]: -1.83%
activity change, negative = inhibition [2]: -3.41%
activity change, negative = inhibition [3]: -8.66%
activity change, negative = inhibition [4]: -17%
activity change, negative = inhibition [5]: -10.2%

Cc1ccc(COC(=O)N2CC[C@@H](CNc3ncccn3)[C@@H](F)C2)cc1
activity change, negative = inhibition [1]: -3.71%
activity change, negative = inhibition [2]: -9.34%
activity change, negative = inhibition [3]: -3.08%
activity change, negative = inhibition [4]: -18%
activity change, negative = inhibition [5]: -14.8%

CCCn1c(=O)c2ccc(C(=O)NC(C)CC)cc2n2c(SCC(=O)Nc3ccc(CC)cc3)nnc12 (stereo not given)
activity change, negative = inhibition [1]: 4.1%
activity change, negative = inhibition [2]: 0%
activity change, negative = inhibition [3]: 7.25%
activity change, negative = inhibition [4]: -4.69%
activity change, negative = inhibition [5]: 4.99%

CCOC(=O)C1(CCOc2ccccc2)CCN(Cc2ccc(O)c(Cl)c2)CC1
activity change, negative = inhibition [1]: -6.46%
activity change, negative = inhibition [2]: -10.2%
activity change, negative = inhibition [3]: -20.3%
activity change, negative = inhibition [4]: -18.3%
activity change, negative = inhibition [5]: -6.67%

CCCn1nc(CNC(=O)Cc2ccc(F)cc2)c2ccccc21
activity change, negative = inhibition [1]: -0.692%
activity change, negative = inhibition [2]: 0.465%
activity change, negative = inhibition [3]: -6.44%
activity change, negative = inhibition [4]: -4.24%
activity change, negative = inhibition [5]: -0.31%

COC[C@@H]1CN(C(=O)c2cc(OC)cc(OC)c2)C[C@H]1c1ccncc1
activity change, negative = inhibition [1]: -0.826%
activity change, negative = inhibition [2]: 3.54%
activity change, negative = inhibition [3]: 1.71%
activity change, negative = inhibition [4]: -1.97%
activity change, negative = inhibition [5]: -8.75%

COCc1cn2c(=O)n(C)cc(-c3ccnc(OC)c3)c2n1
activity change, negative = inhibition [1]: -9.57%
activity change, negative = inhibition [2]: 3.34%
activity change, negative = inhibition [3]: -0.817%
activity change, negative = inhibition [4]: -4.82%
activity change, negative = inhibition [5]: 11.2%

NC(=O)OCC(COC(N)=O)c1ccccc1
activity change, negative = inhibition [1]: 2.66%
activity change, negative = inhibition [2]: 7.69%
activity change, negative = inhibition [3]: 4.43%
activity change, negative = inhibition [4]: -4.55%
activity change, negative = inhibition [5]: 7%

CCOC(=O)CNC(=O)C1(C)Cn2c(ccc2-c2ccco2)C(=O)N1Cc1ccc2c(c1)OCO2 (stereo not given)
activity change, negative = inhibition [1]: -6.55%
activity change, negative = inhibition [2]: 0%
activity change, negative = inhibition [3]: 3.13%
activity change, negative = inhibition [4]: 0.583%
activity change, negative = inhibition [5]: -0.904%

CCC1c2ccc(C)n2CCN1C(=O)Nc1cc(Cl)ccc1OC (stereo not given)
activity change, negative = inhibition [1]: -9.33%
activity change, negative = inhibition [2]: -1.54%
activity change, negative = inhibition [3]: -7.45%
activity change, negative = inhibition [4]: -12.5%
activity change, negative = inhibition [5]: -10.9%

CCCCN1C(=O)c2cc(C(=O)NCCC)nn2CC1(C)C(=O)NC1CCCC1 (stereo not given)
activity change, negative = inhibition [1]: 9.86%
activity change, negative = inhibition [2]: 1.32%
activity change, negative = inhibition [3]: 8.08%
activity change, negative = inhibition [4]: 7.12%
activity change, negative = inhibition [5]: 8.7%

O=C1CCC2(CCN(C(=O)c3ccoc3)CC2)CN1CC1CCCO1 (stereo not given)
activity change, negative = inhibition [1]: -1.91%
activity change, negative = inhibition [2]: -5.39%
activity change, negative = inhibition [3]: 0.156%
activity change, negative = inhibition [4]: -6.31%
activity change, negative = inhibition [5]: -0.744%

COC(=O)c1ccc([C@@H]2Nc3c(C)cccc3[C@@H]3C=CC[C@@H]32)cc1
activity change, negative = inhibition [1]: -9.35%
activity change, negative = inhibition [2]: 0%
activity change, negative = inhibition [3]: -5.2%
activity change, negative = inhibition [4]: -10.6%
activity change, negative = inhibition [5]: -9.49%

CN(Cc1cnn(-c2ccccc2)c1)Cc1cc2ccccc2[nH]c1=O
activity change, negative = inhibition [1]: -6.45%
activity change, negative = inhibition [2]: 3.04%
activity change, negative = inhibition [3]: -3.48%
activity change, negative = inhibition [4]: -6.6%
activity change, negative = inhibition [5]: -3.08%

O=C(CC12CC3CC(CC(C3)C1)C2)Nc1cccc2nc(NCCNCCO)ccc12
activity change, negative = inhibition [1]: -2.85%
activity change, negative = inhibition [2]: 9.4%
activity change, negative = inhibition [3]: -4.57%
activity change, negative = inhibition [4]: -15.2%
activity change, negative = inhibition [5]: 3.17%

COc1cccc(N2C(=O)c3cc4sccc4n3CC2(C)C(=O)NC2CCCCC2C)c1 (stereo not given)
activity change, negative = inhibition [1]: -4.3%
activity change, negative = inhibition [2]: 4.96%
activity change, negative = inhibition [3]: -3.14%
activity change, negative = inhibition [4]: -3.66%
activity change, negative = inhibition [5]: -3.25%

CCCc1nc(C(=O)N2CCC3(CCCNC3)C2)cs1 (stereo not given)
activity change, negative = inhibition [1]: -1.69%
activity change, negative = inhibition [2]: -2.58%
activity change, negative = inhibition [3]: 0.407%
activity change, negative = inhibition [4]: 0.557%
activity change, negative = inhibition [5]: -4.24%

COc1ccc(C(=O)Cn2nc3n(C(C)C)c(=O)c4ccc(C(=O)NCC(C)C)cc4n3c2=O)cc1
activity change, negative = inhibition [1]: 3.94%
activity change, negative = inhibition [2]: 3.46%
activity change, negative = inhibition [3]: 7.1%
activity change, negative = inhibition [4]: 2.28%
activity change, negative = inhibition [5]: 5.79%

COc1cc(O)c2c(c1)C1=CC(O)C(O)CC1(C)OC2=O (stereo not given)
activity change, negative = inhibition [1]: -1.91%
activity change, negative = inhibition [2]: 0.82%
activity change, negative = inhibition [3]: 4.04%
activity change, negative = inhibition [4]: -12.1%
activity change, negative = inhibition [5]: -6.01%

CC1(C(=O)NC2CCCC2)Cn2c(ccc2-c2ccco2)C(=O)N1Cc1ccccc1Br (stereo not given)
activity change, negative = inhibition [1]: -3.97%
activity change, negative = inhibition [2]: 3.6%
activity change, negative = inhibition [3]: 2.92%
activity change, negative = inhibition [4]: -6.03%
activity change, negative = inhibition [5]: -3.63%

COCCN1CCCCCC(O)c2cc(C(=O)N(C)CCCc3c(C)nn(C)c3C)ccc21 (stereo not given)
activity change, negative = inhibition [1]: -3.38%
activity change, negative = inhibition [2]: 1.51%
activity change, negative = inhibition [3]: -1.22%
activity change, negative = inhibition [4]: -2.58%
activity change, negative = inhibition [5]: 0.496%

CCC(=O)N(C1CCOCC1)C1CCN(S(=O)(=O)c2ccc(Cl)c(C)c2)CC1
activity change, negative = inhibition [1]: -0.034%
activity change, negative = inhibition [2]: 1.61%
activity change, negative = inhibition [3]: 1.63%
activity change, negative = inhibition [4]: -1.39%
activity change, negative = inhibition [5]: 0.741%

CC(C)NC(=O)NCC1Cn2cccc2C(=O)N1Cc1ccccc1 (stereo not given)
activity change, negative = inhibition [1]: -3.74%
activity change, negative = inhibition [2]: -5.33%
activity change, negative = inhibition [3]: -2.9%
activity change, negative = inhibition [4]: -11.8%
activity change, negative = inhibition [5]: -5.08%

Cc1nnc2n(-c3cccc(F)c3)c(=O)c3ccc(C(=O)NCc4ccc5c(c4)OCO5)cc3n12
activity change, negative = inhibition [1]: -1.55%
activity change, negative = inhibition [2]: 0%
activity change, negative = inhibition [3]: 2.86%
activity change, negative = inhibition [4]: 6.15%
activity change, negative = inhibition [5]: -4.06%

O=c1c2c(nc3cc[nH]n13)CN(S(=O)(=O)c1cccc(C(F)(F)F)c1)CC2
activity change, negative = inhibition [1]: -11.5%
activity change, negative = inhibition [2]: -14.5%
activity change, negative = inhibition [3]: -11%
activity change, negative = inhibition [4]: -17.7%
activity change, negative = inhibition [5]: -20.3%

O=C(CCC1CCCC1)NCc1nnc2cc(-c3nc(C4CC4)no3)ccn12
activity change, negative = inhibition [1]: -3.76%
activity change, negative = inhibition [2]: -0.058%
activity change, negative = inhibition [3]: -2.31%
activity change, negative = inhibition [4]: -1.12%
activity change, negative = inhibition [5]: -4.16%

CCCn1c(=O)c2ccc(C(=O)NC(C)CC)cc2n2c(=O)n(Cc3ccc(F)cc3Cl)nc12 (stereo not given)
activity change, negative = inhibition [1]: -0.909%
activity change, negative = inhibition [2]: 0%
activity change, negative = inhibition [3]: 4.01%
activity change, negative = inhibition [4]: -5.17%
activity change, negative = inhibition [5]: -0.921%

O=C(Cn1ccc2cc(S(=O)(=O)N3CCCCC3)ccc21)NCCc1cccs1
activity change, negative = inhibition [1]: -3.94%
activity change, negative = inhibition [2]: 1.5%
activity change, negative = inhibition [3]: -9.75%
activity change, negative = inhibition [4]: -15.5%
activity change, negative = inhibition [5]: -9.17%

COc1ccc2cc3n(c2c1)CC(C)(C(=O)NCC1CCCO1)N(CC(C)c1ccccc1)C3=O (stereo not given)
activity change, negative = inhibition [1]: 7.85%
activity change, negative = inhibition [2]: 0%
activity change, negative = inhibition [3]: 9.08%
activity change, negative = inhibition [4]: 11.3%
activity change, negative = inhibition [5]: 2.74%

COc1cccc(CNC(=O)c2cc3n(n2)CC(C)(C(=O)NCc2ccc(F)cc2)N(C)C3=O)c1OC (stereo not given)
activity change, negative = inhibition [1]: -7.91%
activity change, negative = inhibition [2]: 0%
activity change, negative = inhibition [3]: -14.1%
activity change, negative = inhibition [4]: -0.344%
activity change, negative = inhibition [5]: -7.11%
